Reference: PubChem BioAssay (NCI)
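Method: 48-hour compound exposure of cells in 96-well plates, five concentrations, linear interpolation of endpoints. The concentration for 50% growth inhibition is given as GI50. TGI marks complete inhibition of growth.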

tested on: NCI-H322M lung; assay: NCI tumour cell line growth inhibition, 48 h

Row | SMILES | TGI | GI50
1 | O=C(N/N=C/C=C/c1ccc([N+](=O)[O-])o1)c1ccc(C(=O)N/N=C/C=C/c2ccc([N+](=O)[O-])o2)cc1 | > 100 µM | –
2 | C/C(=N/N=C(N)N)c1ccc(NC(=O)Nc2ccc(/C(C)=N/N=C(N)N)cc2)cc1 | > 94 µM | 36100 nM
3 | Cc1nnc(Sc2nc(C#N)c(C#N)nc2Sc2nnc(C)s2)s1 | 37.7 µM | –
4 | COc1cc(/C=C2\C[C@H]3[C@@H]4CC=C5C[C@@H](OC(C)=O)CC[C@]5(C)[C@H]4CC[C@]3(C)[C@H]2OC(C)=O)ccc1OCCN1CCCC1 | 16 µM | 8100 nM
5 | O=c1ccnc2ccc3n[nH][nH]c3c12 | > 100 µM | –
6 | CCCCCCCCOC(=O)c1cc([N+](=O)[O-])c(Sc2ncnc3nc[nH]c23)c([N+](=O)[O-])c1 | 22.4 µM | –
7 | O=P(O)(CN1CCN(CP(=O)(O)c2ccccc2)CCN(CP(=O)(O)c2ccccc2)CC1)c1ccccc1 | > 100 µM | –
8 | COc1cccc(Nc2nccc(-c3cnn4ncccc34)n2)c1 | > 20.7 µM | 79.9 nM
9 | CCN(Cc1ccc(F)cc1)c1ccc(CO)c(OC)c1 | > 76.3 µM | 25100 nM
10 | COc1ccc(C(=O)/C=C/c2ccc(OCC(=N)N)cc2)cc1 | 27.6 µM | –
11 | Cc1ccc(S(=O)(=O)N2CCc3ccc(O)c4c3C2Cc2ccc3c(c2-4)OCO3)cc1 (stereo not drawn) | 99.2 µM | 4050 nM
12 | O=C1/C(=C/c2ccc(Cl)cc2)CSC/C1=C\c1ccc(Cl)cc1 | 24.5 µM | –
13 | Cc1cc2nc(N3C(=O)/C(=C/c4ccc(N(C)C)cc4)N=C3c3ccccc3)sc2cc1C | > 100 µM | –
14 | COc1ccc(/C=C2\c3cc(OC)c(OC)c(OC)c3CC[C@@H]2O)cc1F | > 100 µM | 544 nM
15 | COC(=O)/C(C#N)=C(\N)c1c(C)c2ccccc2oc1=N | > 100 µM | –
16 | CCO/C(Cc1ccc(Cl)cc1)=N/NC(N)=S | > 100 µM | –
17 | CSc1c(C#N)c(S)[nH]c(=O)c1C#N | > 100 µM | –
18 | CCN(CC)CCNc1ccc2nc(C)n3c4ccc(O)cc4c(=O)c1c23 | 14.6 µM | –
19 | CCN1CCC(O)(c2ccc(O)cc2)C(C(=O)c2ccc(O)cc2)C1 (stereo not drawn) | > 100 µM | –
20 | CCOP1(=O)C=C(C)C(=C(Cl)Cl)C(C)=C1 (stereo not drawn) | 65.4 µM | –
21 | COc1c2c(cc3c1C(=O)Cc1ccc4c(c1CN(C)CC3)OCO4)OCO2 | > 100 µM | –
22 | Cc1cc(Cl)cc(Cc2cc(Cl)cc(C)c2O)c1O | 16.7 µM | 3890 nM
23 | Cc1c(F)c(NC(=O)CN(C)C)c2c(=O)cc(-c3ccc(NC(=O)CN(C)C)c(F)c3)oc2c1F | 31.8 µM | –
24 | [N-]=[N+]=CC(=O)CCC(=O)N(c1ccccc1)c1ccccc1 | > 10 µM | –
25 | CCOCc1cc(=O)c2c(OC)cc3c(c2o1)CCC(C)(C)O3 | > 100 µM | –

Row | SMILES | TGI | GI50
26 | C=C1C(=O)O[C@H]2[C@H]1CC/C(COC(=O)NCCCCCCCCNC(=O)OC/C1=C/CC[C@@]3(C)O[C@H]3[C@H]3OC(=O)C(=C)[C@@H]3CC1)=C\CC[C@@]1(C)O[C@@H]21 | 4.59 µM | 2140 nM
27 | Nc1c(F)cc(-c2nc3cc(F)ccc3[se]2)cc1Br | > 100 µM | 315 nM
28 | COC1=CC(=O)c2nc(Cl)ccc2C1=O | 24.8 µM | 11700 nM
29 | COC(=O)C(=O)C(C(=O)C(=O)Nc1cc(C)ccc1C)c1nc2ccc(C(=O)c3ccccc3)cc2[nH]c1=O (stereo not drawn) | > 100 µM | –
30 | N#Cc1c(O)c2ccccc2[nH]c1=O | > 100 µM | –
31 | N/C(=N\S(=O)(=O)c1cc(Cl)c(Oc2ccc([N+](=O)[O-])cc2Cl)c(Cl)c1)Nc1ccc(Cl)cc1 | 33.1 µM | –
32 | Nc1ccc(Sc2c3ccccc3nc3ccccc23)cc1 | 55.8 µM | –
33 | Cc1ccc(N2C(N)=C(C#N)C(C#N)(C#N)C2c2ccccc2)cc1 (stereo not drawn) | 33.3 µM | –
34 | COC1C(O)C(C)OC(OC2CCC3(C)C(CCC4C3C(O)CC3(C)C(C5=CC(=O)OC5)CCC43O)C2)C1O (stereo not drawn) | 1.42 µM | –
35 | O=C1CCCc2ccc3c(c21)CC1(Cc2ccccc2C1)C3 | 68.3 µM | –
36 | CCOC(=O)CNc1nnnn1C1OC(CO)C(O)C1O (stereo not drawn) | > 100 µM | –
37 | CN1CCN(Cc2ccc(NC(=O)c3cncc(C#Cc4cnc(N)c5cnccc45)c3)cc2C(F)(F)F)CC1 | 6.42 µM | 177 nM
38 | Cc1cccc2c1c(=O)c1c(O)cc(O)cc1n2C | > 100 µM | –
39 | CC1=C([Se]CC(OC(=O)[C@@H](CO)NC(=O)OC(C)(C)C)C(=O)NCCCCCC(=O)OCc2ccccc2)C(=O)c2ccccc2C1=O (stereo partly drawn) | 1.92 µM | 418 nM
40 | FC(F)(F)c1cc(Nc2ccc3cc(OCCCN4CCOCC4)ccc3n2)ccc1Cl | 7.53 µM | 2530 nM
41 | C=C(CCCO)[C@@H]1CC[C@@](C)(O)[C@H]1C | > 100 µM | –
42 | COC1/C=C/C(C)C(C(C)C(OC)C(C)CCC(=O)C(C)C(CC(=O)O)OC)OC(=O)/C=C/C=C(\C)CC(OC)CC2=CC(=O)O[C@H](C2)C(C)C(OC)CC(OC)/C=C/C(C)C(OC)C1 (stereo partly drawn) | > 4.35 µM | –
43 | COc1ccc(CCc2cc(OC)c(O)c(OC)c2)cc1 | > 100 µM | –
44 | CC1CN=C(Nc2ccc(F)c(Cl)c2)S1 (stereo not drawn) | > 100 µM | –
45 | COc1cc(C=O)cc(O)c1O | > 100 µM | –
46 | CCOC(=O)c1cc(C2CCN(Cc3ccccc3)C2=S)c(C(=O)C=[N+]=[N-])[nH]1 (stereo not drawn) | 93.5 µM | –
47 | N#Cc1c(N2CCN(c3ccc([N+](=O)[O-])cc3)CC2)[n+](=O)c2ccccc2n1[O-] | > 100 µM | –
48 | Cc1ccccc1C1CC(c2ccccc2)=NO1 (stereo not drawn) | > 100 µM | –
49 | CC1C(c2ccccc2O)c2cc3c(cc2OC1N1CCOCC1)OCO3 (stereo not drawn) | > 100 µM | –
50 | c1ccc(N/N=C2\NN=C(c3ccccc3)CS2)cc1 | > 100 µM | –
